Experimental data published in PubChem BioAssay AID485281 (National Center for Advancing Translational Sciences (NCATS), 2010).
About 260 (0.074%) of roughly 350,000 compounds were called active. The shares of active, inactive and inconclusive entries below differ from those in the screen. Calls follow the shape of the dose curve; as a rule, active = well fitted inhibition curve with a large enough effect; inconclusive = small, poorly fitted or top-dose-only effect; inactive = no such curve, though single readings can be large or run the other way. Where the call is inconclusive, the potency comes from a doubtful curve fit.

Molecular target: Ferritin light chain (Equus caballus) (UniProt P02791)
Test: qHTS Assay for Identification of Novel General Anesthetics; also: nearly all actives have a fitted effect of over 20% in size
Details: apoferritin/1-aminoanthracene competitive binding, fluorescence; series mostly up to 77.5 µM
Method in brief: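 Probe: 1-aminoanthracene (50% saturated, PBS). Protein: horse-spleen apoferritin, 10 uM. Incubation: 10 min, room temperature. Detection: 380 nm excitation, 535 nm emission. Analysis: normalized response, four-parameter Hill.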
Potency is read from the fitted curve at half-maximal effect; tags tell the direction and shape of the fitted curve.

Sequence of UniProt P02791 (P02791 whole entry, looked up): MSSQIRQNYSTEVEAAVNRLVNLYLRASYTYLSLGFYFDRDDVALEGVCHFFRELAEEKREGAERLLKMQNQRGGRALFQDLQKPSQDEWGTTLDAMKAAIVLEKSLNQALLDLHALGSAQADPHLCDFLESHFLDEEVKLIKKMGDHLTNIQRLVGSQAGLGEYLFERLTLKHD

For `CCc1ccc(OCC(=O)NNC(=S)NC(=O)C2CCCCC2)c(Br)c1`, which Potency is on record?
The Potency was inconclusive: 44.7 µM [inhibitor, single point].

How did the Potency turn out when `CCC1=NN2C(=N)/C(=C\c3cccn3-c3ccc(C)cc3C)C(=O)N=C2S1` was run?
The Potency was inconclusive: 22.4 µM [inhibitor, partial curve].

`CCOC(=O)c1ccc2c(c1)nc(SCC(=O)c1ccco1)n2CC` was tested. Which Potency did it give?
Its Potency is inconclusive: 39.8 µM [inhibitor, single point].

With `Cc1ccc(NC(=S)NC(=O)c2ccc(-c3ccccc3)cc2)c(C)c1` as the compound, how does the Potency read?
The Potency was inconclusive: 35.5 µM [inhibitor, partial curve].

With `CC1CCC(C(C)C)C(OC(=O)CSc2n[nH]c(=O)[nH]c2=O)C1` (centres undefined) as the compound, how does the Potency read?
The Potency was inconclusive: 35.5 µM [inhibitor, partial curve].

For `COC(=O)c1cccc(NC(=O)Nc2ccc(Cl)c(Cl)c2)c1`, which Potency is on record?
Its Potency is inconclusive: 22.4 µM [inhibitor, partial curve].

With `COCCNS(=O)(=O)c1cccn1-c1ncc(C(F)(F)F)cc1Cl` as the compound, how does the Potency read?
The Potency was inconclusive: 50.1 µM [inhibitor, single point].

How did the Potency turn out when `COc1ccc(OCCC(=O)NCC23CC4CC(CC(C4)C2)C3)cc1` was run?
Its Potency is inconclusive: 7.94 µM [inhibitor, full curve].

For `Cc1ccc(NS(=O)(=O)c2ccc(Cl)c(NC(=S)NC(=O)C3CCCCC3)c2)cc1Cl`, which Potency is on record?
Its Potency is inconclusive: 8.91 µM [inhibitor, partial curve].

Which Potency does the source give for `CC(C)N(Cc1ccccc1)C(=O)Cn1ncc2c3ccccc3n(Cc3ccccc3)c2c1=O` here?
Its Potency is inconclusive: 2 µM [inhibitor, partial curve].

`CC1(C)Cc2c(C#N)c(N3CCN(C(=O)c4ccccc4)CC3)nc(-c3ccco3)c2CS1` was tested. Which Potency did it give?
Its Potency is inconclusive: 15.8 µM [inhibitor, partial curve].

How did the Potency turn out when `C=C(C)COc1ccc(-c2[nH]ncc2Oc2ccc(OC)cc2)c(O)c1` was run?
Its Potency is inconclusive: 50.1 µM [inhibitor, single point].

How did the Potency turn out when `O=C(CCc1ccccc1)Nc1cc(C(F)(F)F)ccc1Cl` was run?
Its Potency is inconclusive: 50.1 µM [inhibitor, partial curve].

`Cc1ccc(N=C2NC(=O)CC(C(=O)Nc3ccc4c(c3)OCO4)S2)cc1` (centres undefined) was tested. Which Potency did it give?
Its Potency is inconclusive: 31.6 µM [inhibitor, single point].

For `CCOC(=O)C1=C(C)N(c2ccc(OC)cc2)C(=O)/C1=C\c1ccc(O)c(OCC)c1`, which Potency is on record?
The Potency was “inactive”.

Which Potency does the source give for `O=S(=O)(c1ccc(OCC(O)CNC23CC4CC(CC(C4)C2)C3)c(Cl)c1)N1CCOCC1` (centres undefined) here?
The Potency was inconclusive: 22.4 µM [inhibitor, partial curve].

With `CCn1c(CNC(=O)C23CC4CC(CC(C4)C2)C3)nnc1SC` as the compound, how does the Potency read?
The Potency was inconclusive: 25.1 µM [inhibitor, partial curve].

`O=C(CSc1ccc2ccccc2n1)N/N=C/c1ccc(O)cc1` was tested. Which Potency did it give?
The Potency was inconclusive: 25.1 µM [inhibitor, partial curve].

`Cc1ccc(C(=O)NCc2ccco2)cc1S(=O)(=O)N1CCCCC1` was tested. Which Potency did it give?
The Potency was inconclusive: 20 µM [inhibitor, partial curve].

For `O=C(Cc1cn(Cc2cccc(Cl)c2)c2ccccc12)N1CCCCCC1`, which Potency is on record?
The Potency was inconclusive: 39.8 µM [inhibitor, partial curve].

For `Cc1ccc(NCc2ccccc2F)cc1`, which Potency is on record?
The Potency was inconclusive: 50.1 µM [inhibitor, single point].

With `Cn1cc(C(=O)NCc2ccccc2Cl)c(=O)c2cc(S(=O)(=O)N3CCCCCC3)ccc21` as the compound, how does the Potency read?
Its Potency is inconclusive: 12.6 µM [inhibitor, single point].

For `O=C(Nc1cc(C(F)(F)F)ccc1-n1cncn1)c1ccc(-c2ccccc2)cc1`, which Potency is on record?
The Potency was inconclusive: 5.62 µM [inhibitor, partial curve].

How did the Potency turn out when `O=C(NC(=S)NCCC1=CCCCC1)c1ccccc1Br` was run?
The Potency was inconclusive: 17.8 µM [inhibitor, partial curve].

How did the Potency turn out when `COc1ccc(C(=O)NCc2nnc(SCC(=O)c3ccccc3)o2)cc1` was run?
Its Potency is inconclusive: 25.1 µM [inhibitor, partial curve].

`Cc1ccc(-c2nnn(CC(=O)Nc3cccc4c3CCCC4)n2)o1` was tested. Which Potency did it give?
Its Potency is inconclusive: 5.01 µM [inhibitor, partial curve].

With `CCN(CC)S(=O)(=O)c1ccc2nc(SC)sc2c1` as the compound, how does the Potency read?
Its Potency is inconclusive: 28.2 µM [inhibitor, partial curve].

For `Cn1c(SCC(=O)OC2CCCCC2)nnc1-c1ccc(S(=O)(=O)N2CCCC2)cc1`, which Potency is on record?
Its Potency is inconclusive: 44.7 µM [inhibitor, single point].

`CCC1CCC(N2CCN(c3ccc([N+](=O)[O-])cc3)CC2)CC1` (centres undefined) was tested. Which Potency did it give?
Its Potency is inconclusive: 35.5 µM [inhibitor, partial curve].

With `CN(CCOc1ccccc1)c1ccc(S(=O)(=O)N2CCCCC2)cn1` as the compound, how does the Potency read?
Its Potency is inconclusive: 5.62 µM [inhibitor, full curve, poor fit].

`Nc1nc(SCc2cccc(Br)c2)n[nH]1` was tested. Which Potency did it give?
The Potency was inconclusive: 28.2 µM [inhibitor, single point].

`CN(CC(=O)Nc1ccc(Cl)c(Cl)c1)C1CCCCC1` was tested. Which Potency did it give?
The Potency was inconclusive: 22.4 µM [inhibitor, partial curve].

Which Potency does the source give for `Cc1ccc(C2CC(C(F)(F)F)n3ncc(C(=O)NCc4ccco4)c3N2)cc1` (centres undefined) here?
Its Potency is inconclusive: 28.2 µM [inhibitor, partial curve].

How did the Potency turn out when `CCOC(=O)c1ccc(NCc2ccc3c(c2)OCO3)cc1` was run?
Its Potency is inconclusive: 10 µM [inhibitor, partial curve].

Which Potency does the source give for `COc1ccc(C(=O)/C=C/C(=O)N(Cc2ccccc2)C(C(=O)NC2CCCCC2)c2ccncc2)c(O)c1` (centres undefined) here?
The Potency was inconclusive: 50.1 µM [inhibitor, single point].

`O=C(NN1C(=O)/C(=C/c2ccc(O)c(O)c2)SC1=S)c1ccccc1` was tested. Which Potency did it give?
The Potency was inconclusive: 31.6 µM [inhibitor, partial curve].

For `Cc1n[nH]c(C)c1N=Nc1ccc(Br)cc1`, which Potency is on record?
The Potency was inconclusive: 15.8 µM [inhibitor, partial curve].

Which Potency does the source give for `O=S(=O)(Nc1ccc(C(F)(F)F)cc1)c1ccc2c(c1)OCCO2` here?
The Potency was inconclusive: 15.8 µM [inhibitor, partial curve].

Which Potency does the source give for `CC(=O)Nc1nc(SCCCc2ccccc2)n[nH]1` here?
The Potency was inconclusive: 31.6 µM [inhibitor, single point].
